# Assay results taken from PubChem BioAssay AID686978 (National Center for Advancing Translational Sciences (NCATS), 2013).
# Among all 420,000 compounds or so, about 64,000 (15%) were called active. The shares of active, inactive and inconclusive entries below differ from those in the screen. Calls come from the whole dose curve; as a rule, active = well fitted inhibition curve with a large enough effect; inconclusive = small, poorly fitted or top-dose-only effect; inactive = flat fitted curve, though single readings scatter. Potencies of inconclusive entries are left out as doubtful fits.
# Experiment: qHTS for Inhibitors of human tyrosyl-DNA phosphodiesterase 1 (TDP1): qHTS in cells in absence of CPT; note: nearly all actives have a fitted effect of over 55% in size
# Conditions: DT40 Tdp1-/- hTDP1 cells, no CPT, ATP luminescence, 48 h; activity change, negative = growth inhibition: at 46.2 µM (top of the series) unless noted
# How it was run: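 Luminescent ATP content (CellTiter-Glo) served as the growth readout. Knockout chicken DT40 cells expressing human TDP1 were exposed to compounds without camptothecin for a minimum 48 hr at 37 °C.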
# % is set by controls: 0 for no effect and ±100 for the full control effect; potency is the fitted concentration of half-maximal effect; tags give direction and shape of the fitted curve.
Compound,Potency,"activity change, negative = growth inhibition"
C[n+]1ccc(CO)cc1,inactive,–
COc1ccc(C(=O)Nc2nc3n(n2)C(c2ccccc2)C=C(c2ccccc2)N3)cc1 (stereo unspecified),"inconclusive [inhibitor, single point]",–
Cc1nc(N2CCCCC2)c2c(C)c(C(=O)Nc3cccc(C(F)(F)F)c3)sc2n1,"inconclusive [inhibitor, single point]",–
COCOCCn1cc(CN2CCS(=O)(=O)N(Cc3ccc(-c4cccc(CO)c4)cc3)C(C)C2=O)nn1 (stereo unspecified),inactive,–
CC(C)c1ccc(NC(=O)Cn2cc(S(=O)(=O)Cc3cccc(Cl)c3)c3ccccc32)cc1,"inconclusive [inhibitor, single point]",–
CCc1ccc(OCCNc2cc(N3CCNC(C)C3)ccc2[N+](=O)[O-])cc1 (stereo unspecified),"inconclusive [inhibitor, single point]",–
O=C(O)c1cc(-c2ccco2)nn1-c1cccc(Cl)c1,inactive,–
Cc1ccc(N2C(=O)N(CC(=O)Nc3cccc(Cl)c3)C(=O)C2C)cc1 (stereo unspecified),"inconclusive [inhibitor, single point]",–
CCCCn1c(=O)[nH]c(=O)c2c1nc(-c1ccc([N+](=O)[O-])cc1)n2CC,"inconclusive [inhibitor, single point]",–
Cc1cc(C)c(S(=O)(=O)Nc2ccc(-c3cn4ccccc4n3)cc2)c(C)c1,"inconclusive [inhibitor, partial curve]",–
O=C1CCCCC1C(=O)c1cn(-c2ccc(Cl)c(Cl)c2)nn1 (stereo unspecified),inactive,–
Cc1cc2cc(CN(CCCN3CCOCC3)C(=O)NC3CCCCC3)c(=O)[nH]c2cc1C,"inconclusive [inhibitor, single point]",–
C/C(CC(=O)Nc1cccc(C(F)(F)F)c1)=N\NC(=O)c1cnccn1,inactive,–
CCC(C)NC(=O)c1cc(S(=O)(=O)N2CCCCC2)c[nH]1 (stereo unspecified),inactive,–
Cc1ccc(OCCn2cc(C#N)c3ccccc32)cc1,"inconclusive [inhibitor, single point]",–
Cn1c(N)c(C(=O)CSc2ccc3c(c2)OCCO3)c(=O)n(C)c1=O,active: 18.4 µM,–
COc1ccc(N2CCN(Cc3cc(=O)oc4ccc(Cl)cc34)CC2)cc1,inactive,–
COc1ccc(C2CC(C(C)(C)C)=NN2c2ccc(S(N)(=O)=O)cc2)cc1 (stereo unspecified),–,inconclusive: -30.3% [inhibitor]
CCOc1ccccc1C(=O)N(Cc1cc(OC)c(OC)c(OC)c1)c1ccccn1,"inconclusive [inhibitor, single point]",–
CCC(C(=O)NC1CCCC1)N(Cc1cccs1)C(=O)Cn1nnc(-c2ccc(OC)c(OC)c2)n1 (stereo unspecified),"inconclusive [inhibitor, partial curve]",–
Cc1ccc(C(C(=O)NCc2ccccc2)N(Cc2ccco2)C(=O)c2snc(C(N)=O)c2N)o1 (stereo unspecified),active: 14.6 µM,–
CCCN(Cc1nnc(-c2ccccc2Cl)o1)C(=O)c1cc2ccccc2o1,"inconclusive [inhibitor, single point]",–
CC(C)c1ccc(NC(=O)CSc2nc(=O)n(Cc3ccccn3)c3c2CCC3)cc1,active: 18.4 µM,–

Compound,Potency,"activity change, negative = growth inhibition"
CC(=C1C(=O)c2ccccc2C1=O)N1CCC(C(N)=O)(N2CCCCC2)CC1,inactive,–
COc1ccc2c(c1OC)C(=O)OC2Nc1nc(-c2ccccc2)cs1 (stereo unspecified),active: 1.84 µM,–
O=C(CN1C(=O)COc2ccc(Cl)cc21)Nc1cccc(F)c1,"inconclusive [inhibitor, single point]",–
COc1cccc(-c2cnc3c(NC=O)cc(-c4ccccc4Oc4ccccc4)cn23)c1,"inconclusive [inhibitor, single point]",–
CCOc1ccc(S(=O)(=O)N(C)CC(=O)N2CCN(CC)CC2)cc1,inactive,–
O=C(CSc1cccc2cccnc12)Nc1ccc(S(=O)(=O)N2CCOCC2)cc1,"inconclusive [inhibitor, single point]",–
Cc1cccc(C(=O)NCC(=O)N2CCOCC2)c1,inactive,–
Cc1ccc(CCNC(=O)c2ccc3c(c2)nc2n3CCCCC2)cc1,"inconclusive [inhibitor, single point]",–
COc1cccc(NC(=O)c2ccc(CN3CCOCC3)cc2)c1,"inconclusive [inhibitor, partial curve]",–
Cn1c(=O)c2c(ncn2Cc2cc(-c3ccccc3)no2)n(C)c1=O,active: 25.9 µM,–
CCOc1ccc(OCCC(=O)N(CC)CC(=O)NCc2ccc(Cl)cc2)cc1,"inconclusive [inhibitor, single point]",–
O=C(CCNS(=O)(=O)c1ccc(Br)s1)NCc1ccccc1Cl,inactive,–
COc1ncnc2c1ncn2CCCNCc1ccccc1,inactive,–
COC(=O)CNC(=O)C1CCN(S(=O)(=O)c2cccc3nsnc23)CC1,inactive,–
Cc1c(NS(=O)(=O)c2ccc(N3CCCCC3)c([N+](=O)[O-])c2)c(=O)n(-c2ccccc2)n1C,inactive,–
O=C(NCc1ccc(Cl)c(Cl)c1)c1cc(C2CCCCN2C(=O)c2ccccc2)on1 (stereo unspecified),active: 13 µM,–
COc1ccc(Nc2cc(Nc3cccc(OC)c3)ncn2)cc1,"inconclusive [inhibitor, partial curve, poor fit]",–
Cc1sc2ncn(CC(=O)Nc3cccc(C(F)(F)F)c3)c(=O)c2c1S(=O)(=O)N1CCN(C)CC1,inactive,–
CS(=O)(=O)N1CCC2(CCN(Cc3ccc(C#N)cc3)CC2)CC1,inactive,–
CCOc1ccc(N2C(=O)CC(N3CCN(C(=O)c4ccco4)CC3)C2=O)cc1 (stereo unspecified),"inconclusive [inhibitor, single point]",–
N#Cc1ccc(CSc2nnc(-c3ccccn3)n2-c2ccccc2)cc1,"inconclusive [inhibitor, single point]",–
Cc1c(NS(=O)(=O)c2ccc(Cl)c(C(=O)OCC(=O)NCc3ccco3)c2)c(=O)n(-c2ccccc2)n1C,inactive,–
Cc1cccc(C)c1NC(=O)C(c1ccccc1)n1c(=O)c(-c2ccco2)nc2ccccc21 (stereo unspecified),"inconclusive [inhibitor, single point]",–
